Measurements from PubChem BioAssay AID1963576 (National Center for Advancing Translational Sciences (NCATS), 2024).
Among all 46,000 compounds or so, about 60 (0.1%) were called active. Roughly 3% stayed inconclusive and do not appear here. Calls come from the whole dose curve; as a rule, active = well fitted inhibition curve with a large enough effect; inconclusive = small, poorly fitted or top-dose-only effect; inactive = no such curve, though single readings can be large or run the other way. The list shows a part of the results.

Test: Primary qHTS assay for Inhibitors of ovarian cancer metastasis using an organotypic tumor microenvironment (TME) model.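 For activity change, negative = inhibition: plate controls were DMSO wells for no effect and tomatine positive control wells for full effect.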 Note: nearly all actives have a fitted effect of over 65% in size.
Conditions: SKOV3ip1-GFP adhesion/invasion on 3D omental model, fluorescence; series mostly up to 45.8 µM; activity change, negative = inhibition: at the top concentration
Outline: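 Adhesion/invasion was scored as fixed GFP-labeled SKOV3ip1 cell counts (488/509 nm), normalized to DMSO and tomatine controls. Cancer cells in serum-free medium, with four compound doses (0.36-46 umol/L), sat 2 hr at RT then 16 hr at 37 C on a 48 hr fibroblast/mesothelial/ECM culture.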

Activity change, negative = inhibition, inactive:
CC(=O)N1CCc2c(sc(NC(=O)CSc3ccc(C)cc3)c2-c2nc3ccccc3s2)C1 46.6%, COC(=O)c1cc2sc(Cl)cc2n1Cc1nc(-c2ccccc2F)oc1C 7.31%, O=C1CC(=O)Nc2cc(S(=O)(=O)Nc3cccc(Br)c3)ccc2N1 -8.46%, COc1ccc(OC)c(CCNc2ncnc3onc(C)c23)c1 -1.38%, CCn1c(CN2CCC(C)CC2)nc2cc(NC(=O)c3cccc([N+](=O)[O-])c3)ccc21 -18.1%, O=C(NC1(C(F)(F)F)N=C(c2ccccc2)N(C2CCCCC2)C1=O)c1ccccc1F (stereo unspecified) -0.614%, COc1ccc(NS(=O)(=O)c2cc3c4c(c2)CC(=O)N4CCC3)cc1Cl 11.1%, COc1ccccc1NC(=O)Cn1c(SCC(=O)NCc2ccccc2)nc2ccccc21 3.16%, CC(=O)Nc1ccc(-c2nnc3n(CC(C)C)c(=O)c4ccccc4n23)cc1 9.42%, Cc1cc(C)cc(NC(=O)NCC2CCN(Cc3cc(C)ccc3C)CC2)c1 -7.04%, Cc1ccc(-c2cc(-c3coc4ccccc4c3=O)c3c(n2)-c2cc(Cl)ccc2OC3)cc1 5.97%, COc1ccc(-c2noc(CSc3nnc(-c4ccncc4)n3-c3cccc(C)c3)n2)cc1OC 4.92%, COc1ccc(NC(=O)CCCN2C(=O)C(c3ccccc3)Oc3cccnc32)cc1OC (stereo unspecified) -12.4%, COc1ccc(NC(=O)c2oc3ccc4c(c3c2C)C(=O)CC(C)(C)O4)cc1OC 5.67%, COc1cc2c(cc1NC(=O)C(C)Oc1ccc(Cl)cc1Cl)oc1ccccc12 (stereo unspecified) 10.4%, CCNC(=O)Nc1ccc2ncc(Nc3ccc(C)cc3)nc2n1 -4.01%, COc1ccc(CCC(=O)NCCc2csc(-c3cccc(F)c3)n2)cc1 1.97%, CSCCC(NC(=O)C1CCCCC1)C(=O)Nc1ccc(F)c(Cl)c1 (stereo unspecified) -2.44%, CCNc1c(NC(=O)c2ccccc2OCC)c(=O)oc2ccccc12 -11.5%, COc1ccc(N(C(=O)c2ccccc2C)S(=O)(=O)c2ccc3c(c2)n(C)c(=O)n3C)cc1 5.51%, CCOc1ccccc1NS(=O)(=O)c1c(C(=O)OC)sc2cccc(F)c12 2.96%, CCN(c1ncnc2c1c(-c1ccccc1)cn2-c1ccccc1)C1CCCCC1 8.46%, Cc1ccc(OCC(=O)OCc2cc(=O)n3nc(C4CCCCC4)sc3n2)cc1 -3.66%, Cc1ccc(S(=O)(=O)N2CCCc3cc(NC(=O)c4ccc(C(F)(F)F)cc4)ccc32)cc1 -4.77%, CCOC(=O)C1=C(CNCc2ccccc2)NC(=O)NC1c1ccc(C)cc1 (stereo unspecified) -7.38%, COc1cccc(-c2nc(SC(C(C)=O)C(=O)N(C)C)c3c(=O)n(C)c(=O)n(C)c3n2)c1 (stereo unspecified) 0.653%, Cc1ccc(N2C(=O)[C@@H]3CSC(c4ccc(C(F)(F)F)cc4)N3C2=O)cc1 (stereo partly specified) 6.15%, Cc1cc(=O)n(C(C)C(=O)NCc2ccccc2Cl)c2c1c(C)nn2-c1ccccc1 (stereo unspecified) 0.329%, COC(=O)C1=C(C)NC(=O)NC1c1cn(-c2ccccc2)nc1-c1ccc(OC)c(Cl)c1 (stereo unspecified) -1.34%, CCc1ccc(C2N3CC4(C)CN2CC(c2ccccc2)(C3)C4=O)cc1 (stereo unspecified) -13.5%, Cc1c2cnn(CC(=O)N3CCCCC3)c(=O)c2c(C)n1Cc1ccc(Cl)cc1 20.6%, Cc1ccc(C(C)C)c(OCC(=O)Nc2c(C(=O)c3ccc(F)cc3)oc3ccccc23)c1 -3.35%, COc1cc(OC)c(C2C=C(c3ccc(C)cc3)Nc3c(C(=O)Nc4ccccc4)cnn32)cc1OC (stereo unspecified) 3.15%, Cc1c(Cl)cccc1NC(=O)C(=O)NCCc1csc(-c2cccc(F)c2)n1 0.348%, CCOC(=O)C(C)NC(=O)c1cc2c(=O)[nH]c3ccc(C)cc3c2s1 (stereo unspecified) 2.23%, CC(NC(=O)Cc1ccc(NC(=O)N2CCCCc3ccccc32)cc1)c1ccccc1 (stereo unspecified) 1.54%, O=c1cc(-c2ccccc2)oc2cc(O)c(O)c(O)c12 4.08%, CCn1c(CN2CCCCC2)nc2cc(NC(=O)COc3ccc([N+](=O)[O-])cc3)ccc21 0.49%, COc1ccc(-c2[nH]c(-c3ccccc3)nc2SCC(=O)Nc2ccc3c(c2)OCO3)cc1 2%, COc1ccc(NC(=O)c2ccc(-c3cccc(Cl)c3C)o2)cc1 -0.226%, CSc1ncc(C(=O)NCc2ccccc2Cl)c(C(F)(F)F)n1 0.323%, COc1ccc(CN2CCN(c3ncnc4sc5c(c34)CCCC5)CC2)cc1F 2.89%, CCCN1CCN(CC2=C(C(=O)OCC)C(c3cccc(OC)c3OC)NC(=O)N2)CC1 (stereo unspecified) -11.2%, CCCCc1nn2c(=O)cc(COC(=O)c3ccc(NC(=O)c4cccc(OC)c4)cc3)nc2s1 4.52%, CCc1cccc(C)c1NC(=O)C(CC)Sc1nc2ccncc2[nH]1 (stereo unspecified) -3.45%, CCOc1cccc2sc(NC(=O)c3ccc(S(=O)(=O)N4CCc5ccccc54)cc3)nc12 13.6%, Cc1ccc2c(CC(=O)Nc3ccc(S(=O)(=O)Nc4nc(C)cc(C)n4)cc3)coc2c1 8.64%

outcome, inactive:
Cc1ccc(CCNC(=O)c2ccc(CNS(=O)(=O)c3ccc(F)cc3)cc2)cc1, Cc1cc(C)c2c(n1)SCC(=O)N2CC(=O)Nc1c(C)cccc1C, Cc1cc(C)cc(NC(=O)Nc2c[nH]c(=O)[nH]c2=O)c1, COc1cc(-c2nnc(SCC(=O)N(C)C3CCCCC3)o2)cc(OC)c1OC, CCc1ccc(OCC2c3cc(OC)c(OC)cc3CCN2C(=O)Cc2ccc(OC)c(OC)c2)cc1 (stereo unspecified), COc1ccc(OC)c(CCNC(=O)c2sc3nc4n(c(=O)c3c2C)CCCC4)c1, COc1ccc(-n2c(=O)c3c(C)c(C)sc3n(Cc3ccc(F)cc3)c2=O)c(OC)c1, CCOc1ccccc1NC(=O)C1CCN(S(=O)(=O)Cc2ccccc2)CC1, CCn1cc(C(=O)NCc2ccccc2)c(=O)c2cc(S(=O)(=O)N3CCOCC3)ccc21, Cc1cc(O)c(C(c2ccccc2Cl)N2CCCCC2)c(=O)n1Cc1ccco1 (stereo unspecified), O=C(NCCc1ccc(Cl)cc1)c1ccc2c(c1)N(Cc1ccc(F)cc1Cl)C(=O)CS2, CC(NC(=O)c1ccc(N2Cc3ccccc3Oc3ncccc32)s1)c1ccccc1 (stereo unspecified), Cc1ccc(/C=C/c2onc(C)c2S(=O)(=O)N2CCC(C(=O)NCc3ccc(Cl)cc3)CC2)cc1, COc1ccc(-c2nc(CSc3nc4ncccc4[nH]3)c(C)o2)cc1OC
